From the RNAGym collection of RNA variant scans (doi:10.7554/elife.90254)
The source gives no read counts; variants with many changes may rest on few reads.

B1: LINE1-mini (parent)
chain: GGCAGAGCUCAACACAGCGUGGCAAAGUGGCUGUGGCUAGACUGCC

Variants of: B1
Assay: self-cleavage, relative activity (ratio to wild type); higher = more cleavage; in vitro, sequencing; the parent is a self-cleaving ribozyme

Variant | self-cleavage
GGCAGACCUCAACACAGCGUGGCAAAGUGGCUGUGGUUGGACUGCU [G7C C37U A39G C46U] | 0.01
GGCAGACCUCAACACAGCGUGGCAAAGUCGCUGUGGCAACACUGCC [G7C G29C U38A G40C] | 0.06
GGCAGACCUCAACAUAGCGUGGCAAAGUGGCUGUGGUUAAACUGCU [G7C C15U C37U G40A C46U] | 0.06
GGCAGACCUCAACACAGCGUUGCAAAGUGGCCGUGGCUAGACUGCA [G7C G21U U32C C46A] | 0.07
GGCAGACCUCAACAGAGCGUGGCAAAUUGGCUGUGGCUAGACUGCC [G7C C15G G27U] | 0.02
GGCAGACCUAAACAAAGCGUGGCAAAGUGGGUGUGGCUAGAGCUCC [G7C C10A C15A C31G C42G U43C G44U] | 0.01
GGCAGACUUCAACACAGCGUGGCGAAGUGGCUGUGGAUAGAGUGCC [G7C C8U A24G C37A C42G] | 0.03
GGCAGACCUCAACACAGCGUGGCAAAGUGGCUAUGGCUAGACUGAC [G7C G33A C45A] | 0.15
GGCAGACGUCAACACAGCGUGGCAAAUUGGCUGUGGCUAGACUACC [G7C C8G G27U G44A] | 0.16
GGCAGACCUCAACACAGCCUGGCAAUGUGGCUGUGGCUAGACUGCA [G7C G19C A26U C46A] | 0.01
GGCAGACCUCAACACAGCGUUGCAAAGGGGCUGUGGCUAGACUGCC [G7C G21U U28G] | 0.09
GGCAGACCUCAACACAGCGUUGCAAAGCGGCUGUGGCUAGACUGCC [G7C G21U U28C] | 0.03
GGCAGACUUCAACACAGCGUGGCAAAGUGGUUGUGGCUAGACUCCC [G7C C8U C31U G44C] | 0
GGCAGACCUCAACACAGCGUGGCAAACUGGCUGUGACUAGACAGCG [G7C G27C G36A U43A C46G] | 0.02
GGCAGACCUCAACACACCGUGGCAACGUGUCUGUGGCUAGACUGCC [G7C G17C A26C G30U] | 0.23
GGCAGACCUCAACAGAGCAUGGCACAAUGGCUGUGGCUAGACUGCC [G7C C15G G19A A25C G27A] | 0.06
GGCAGACCUCAACACAGCGAGGCAAAGUGGCUAUGGCAAGAAUGCC [G7C U20A G33A U38A C42A] | 0.06
GGCAGACCUCAACACAGCGUGGCAAAGCGGCUGUCGCUAGACUGCC [G7C U28C G35C] | 0.09
GGCAGACCUCAACACAACGUGGCAAGGUGGCUGUGGCUAAACUUCC [G7C G17A A26G G40A G44U] | 0.05

Variant | self-cleavage
GGCAGACCUCAACACAGCAUGGCAAAGUGGCUGCGGCUAGACUGCU [G7C G19A U34C C46U] | 0.05
GGCAGACCUCAACACAGCGUGGCAAAGUGGCUAUGGCUACACUGUC [G7C G33A G40C C45U] | 0
GGCAGACCACAACACAGCUUGGCAAAGUGGCCGUGGCUAGACUGCA [G7C U9A G19U U32C C46A] | 0.03
GGCAGACCUCAACACAACGUUGCAAAGUGGCUGUGGCUACACUGCC [G7C G17A G21U G40C] | 0.01
GGCAGACCUCAACACAGCGUGGGAAAGUGGCUGUGGCAAGACUGCC [G7C C23G U38A] | 0.01
GGCAGACCUAAACAGAGCGUGGCAAAGUGGCUGUGGCUAGUCUGCC [G7C C10A C15G A41U] | 0.01
GGCAGACCUCAACACAGUGUGGCAAAGUGGCUGUGGCUAGAUUGCU [G7C C18U C42U C46U] | 0.13
GGCAGACCUCAACACAUCGUGGCAUAGUGGCUGUGGCUAAACUGUC [G7C G17U A25U G40A C45U] | 0.09
GGCAGACCUAAACACAGCGCGGCAAAGUGGCUGUGGCUAGACUGCC [G7C C10A U20C] | 0.03
GGCAGACCUCAACAAAGCGUAGCAAAGUGGCUGUGGCUAGACUGCC [G7C C15A G21A] | 0.17
GGCAGACCUCAAUACAGCGUGGCAAAGGGGCUGUGGGUAGAUUGCC [G7C C13U U28G C37G C42U] | 0.06
GGCAGACCGCAACACAGCGUGGCAAAGUGGCUGUGGCUAGACUGUC [G7C U9G C45U] | 0.06
GGCAGACCUGAACACAGCGUGGCAAAGUGUCUGUGGCUAGACUACC [G7C C10G G30U G44A] | 0
GGCAGACCGCAACACAGCUUGGCAAAGUGGCUGUGGCUAGACUGCC [G7C U9G G19U] | 0.05
GGCAGACCGCAACACAGCAUGGCAAAGUGGCUGUGGCUAGACUGCC [G7C U9G G19A] | 0.16
GGCAGACCUCAACACAGCGCGGCAAAGUGGCUGUGGCUAGACUGUC [G7C U20C C45U] | 0.06
GGCAGACCUCAACACAGCGUGGAAAAGUGUCUGUGGCUCGACUGCC [G7C C23A G30U A39C] | 0.37
GGCAGACCUCAACACAGAGUGGCAAAGGGGCUGUGGCUAGACUGCC [G7C C18A U28G] | 0.01
GGCAGACCUCAACACAUCGUGGCAAAGUGGUUGUGGCUAGACUGCC [G7C G17U C31U] | 0.17

Variant | self-cleavage
GGCAGACCUUAACACAGCGUGGCAAAGUGGCUGUGGCGAGACUGCC [G7C C10U U38G] | 0.01
GGCAGACCUCAACACAACGUGGCAAAGUGGCUGUGGCUUGACUGCC [G7C G17A A39U] | 0.1
GGCAGACCUCAACACAGCGUGGCAAAGUGGUUGUGGCUAGACUCCC [G7C C31U G44C] | 0.3
GGCAGACCUCAACACAGCGUCGCAAAGUGGUUGUGGCUAGACUGCC [G7C G21C C31U] | 0.03
GGCAGACCUCAACACAGCGUGGCAAAGUGAUUGUGGCUAGACUGCC [G7C G30A C31U] | 0.01
GGCAGACCUCAACACAGAGUUGCAAAGUGGCUGUGGCUAGACUCCC [G7C C18A G21U G44C] | 0.01
GGCAGACCUCAACACAGCUAUGCAAAGUGGCUGUGGCUAGACUGAC [G7C G19U U20A G21U C45A] | 0.02
GGCAGACCUCAAUACAGCGUGGGAAAGUGGCUGUGGAUAGACUGCC [G7C C13U C23G C37A] | 0.11
GGCAGACCUUAACACAGCGUGGCAGACUGGCUGUGUCUAGAUUGCC [G7C C10U A25G G27C G36U C42U] | 0
GGCAGACCUCAACAUAGCGUGGCAAAGUGGCUGUGUCUAGACCGCC [G7C C15U G36U U43C] | 0
GGCAGACCUCAACACAUCGUGGCAAAGUGGCUGUGCCUAGAGUGCC [G7C G17U G36C C42G] | 0.17
GGCAGACCUCAACACAGCGUGGCAAACUGGCUGUGGAUAGACUGCC [G7C G27C C37A] | 0.02
GGCAGACCUCAACACAGCGUGGAAAAGUGGCUGUGGCUAGACUGCU [G7C C23A C46U] | 0.08
GGCAGACCUUGACUCAGCGUGGCAAAGUGGCUGUGGCUAGACUGCC [G7C C10U A11G A14U] | 0.01
GGCAGACCUCAACACAGCGUGGCAAAGUAGCUGUGGCUAAACUGCC [G7C G29A G40A] | 0.54
GGCAGACCUCAACACAGAGUGGCAAAGUGGCUGUGGCUAGACUUCC [G7C C18A G44U] | 0.05
GGCAGACCUCAACACACCCUGGCAAAGUGGCUGUGGCUAGACUACC [G7C G17C G19C G44A] | 0.17
GGCAGACGUCAACACAGCGUGGCAAAGUGGCUGUGGCUAGACGGCC [G7C C8G U43G] | 0.02
